Measured values from article PMC4336329 (PLoS ONE, 2015).
Hit rate of the full screen: of about 310,000 compounds, about 14,000 (4.5%) showed an effect of 50% or more. Effects have a minus sign here. This is one part of the list.

What follows are compounds tested against human ether-à-go-go-related gene (hERG) potassium channel (human, UniProt Q12809) (assay: primary screen, population patch clamp on CHO cells stably expressing hERG).
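Note: peak tail current of the secondary pulse compared with the same well before compound.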

human ether-à-go-go-related gene (hERG) potassium channel, sequence (Q12809 whole entry, looked up): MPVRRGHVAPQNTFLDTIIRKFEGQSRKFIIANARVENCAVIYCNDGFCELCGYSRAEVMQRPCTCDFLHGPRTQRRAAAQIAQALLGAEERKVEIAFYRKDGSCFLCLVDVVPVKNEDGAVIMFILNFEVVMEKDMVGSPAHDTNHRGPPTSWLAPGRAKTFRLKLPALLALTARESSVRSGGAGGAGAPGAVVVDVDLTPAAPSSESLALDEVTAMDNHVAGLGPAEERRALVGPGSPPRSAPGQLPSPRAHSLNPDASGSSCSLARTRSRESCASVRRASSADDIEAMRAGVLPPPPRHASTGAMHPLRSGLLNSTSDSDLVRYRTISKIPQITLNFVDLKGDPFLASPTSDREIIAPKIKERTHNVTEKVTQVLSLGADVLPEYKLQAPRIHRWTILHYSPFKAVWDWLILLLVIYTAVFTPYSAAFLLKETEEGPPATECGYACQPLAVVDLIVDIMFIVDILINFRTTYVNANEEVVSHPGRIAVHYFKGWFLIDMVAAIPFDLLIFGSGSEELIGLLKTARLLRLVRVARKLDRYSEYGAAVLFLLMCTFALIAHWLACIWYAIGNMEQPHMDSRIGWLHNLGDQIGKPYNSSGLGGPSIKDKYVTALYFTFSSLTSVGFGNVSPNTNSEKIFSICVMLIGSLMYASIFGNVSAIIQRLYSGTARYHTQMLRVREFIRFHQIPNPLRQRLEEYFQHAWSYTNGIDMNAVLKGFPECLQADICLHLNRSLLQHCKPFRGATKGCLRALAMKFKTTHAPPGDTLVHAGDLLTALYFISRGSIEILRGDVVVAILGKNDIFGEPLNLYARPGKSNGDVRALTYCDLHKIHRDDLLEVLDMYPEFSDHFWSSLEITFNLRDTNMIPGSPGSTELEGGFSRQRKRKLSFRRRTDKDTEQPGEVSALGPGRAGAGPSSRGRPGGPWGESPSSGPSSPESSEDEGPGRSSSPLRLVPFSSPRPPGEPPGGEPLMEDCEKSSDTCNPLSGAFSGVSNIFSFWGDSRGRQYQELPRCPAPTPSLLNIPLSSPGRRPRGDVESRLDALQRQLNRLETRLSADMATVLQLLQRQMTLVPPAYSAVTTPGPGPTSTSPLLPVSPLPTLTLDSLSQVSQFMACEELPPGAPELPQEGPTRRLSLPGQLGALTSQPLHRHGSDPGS

Row | SMILES | hERG current change (%, negative = inhibition) at 10uM [%]
1 | Cc1ccc(CCCOC(=O)C[N+]2(C)CCCC2)cc1.[I-] | 11.7
2 | COc1cccc(NC(=O)C(NCCC(C)C)c2ccccc2)c1 (stereo not drawn) | -1.13
3 | CCS(=O)(=O)CCSC(=N)N.Cl | -53.3
4 | CC(C)c1nc(N2CCOCC2)c(C#N)c2c1COC(C)(C)C2 | 9.56
5 | COc1ccc(C(=O)N2CCC3(CC2)OCCO3)cc1 | 19
6 | COC(=O)c1[nH]c2ccc(F)cc2c1NS(=O)(=O)c1ccc(OC)cc1 | -0.422
7 | Cl.c1cncc(CNc2ncnc3sc4c(c23)CCC4)c1 | -56.2
8 | CC(C)CNC(=O)c1cc(-c2ccc3c(c2)OCO3)on1 | 22.2
9 | COc1ccccc1CNC(=O)COC(=O)c1cccc(S(=O)(=O)N2CCCCC2)c1 | 0.496
10 | Cc1ccccc1NS(=O)(=O)c1ccc2c3c(cccc13)C(=O)N2C | -4.02
11 | CCC(C)(C(=O)NC1CCCC1)N(CC1CCCO1)C(=O)c1ccc2c(c1)OCO2 (stereo not drawn) | -3.35
12 | CCCOC(=O)c1ccc(NC(=O)C2CCCO2)cc1 (stereo not drawn) | 5.07
13 | CC1CN(c2ccc([N+](=O)[O-])c(NCCOc3ccccc3)c2)CC(C)N1 (stereo not drawn) | -26.9
14 | CCOC(=O)Nc1ccc2c(c1)N(C(=O)CN1CCN(C)CC1)c1ccccc1S2.Cl | -64.4
15 | FC(F)(F)c1ccccc1NC(=S)Nn1cnnc1 | 13.7
16 | CSc1ccccc1NC(=O)CN(C)CC(=O)Nc1ccccc1C(F)(F)F | -8.94
17 | COCc1cc(OC)nc(-c2csc(C)n2)n1 | 20
18 | COC(=O)[C@@]1(Cc2ccc(OC)cc2)[C@H]2c3cc(C(=O)N(C)C)n(Cc4ccc(OC(F)(F)F)cc4)c3C[C@H]2CN1C(=O)c1ccccc1 | 9.99
19 | Cc1ccc(-c2ocnc2C(=O)Nc2ccccc2C(=O)N2CCCC2)cc1 | -8.99
20 | O=c1c(Br)c(N2CCCCC2)cnn1-c1ccccc1 | -16.5
21 | O=C(NCC1CCCN1S(=O)(=O)c1cccs1)c1ccc(F)c(F)c1 (stereo not drawn) | -14.7
22 | CCC(=O)Nc1ccc(C(=O)COC(=O)CCN2C(=O)C3CC=CCC3C2=O)cc1 (stereo not drawn) | 8.6

Row | SMILES | hERG current change (%, negative = inhibition) at 10uM [%]
23 | CCC(C)(C)n1nnnc1C(c1ccc(C)cc1)N1CCN(Cc2ccc3c(c2)OCO3)CC1 (stereo not drawn) | -50.3
24 | N#C/C(=C\c1ccc2c(c1)OCO2)C(=O)NCc1ccco1 | 11.6
25 | CCn1c(COc2ccccc2C)nnc1SCC(=O)CC(=O)Nc1ccccc1OC | -11.7
26 | CCOC(=O)C(=NC1CCCCC1)NNc1cccc(C(F)(F)F)c1 | 1.54
27 | CC(CCc1ccccc1)NC(=O)c1ccco1 (stereo not drawn) | 13.8
28 | COc1cccc(OC)c1OCCOc1ccc(C(=O)c2ccccc2)cc1 | -4.82
29 | Cc1ccc(-n2c(O)c(C=Nc3ccc4c(c3)OCO4)c3ccccc3c2=O)cc1C | -6.15
30 | O=C(NCC(c1ccco1)N1CCN(c2ccccc2F)CC1)OCc1ccccc1 (stereo not drawn) | -13
31 | O=C(Nc1cccnc1)c1cnn2cccnc12 | -20.1
32 | CN(c1ccc(OCC(=O)OCC(=O)c2c(N)n(C)c(=O)n(C)c2=O)cc1)S(=O)(=O)c1ccc2ccccc2c1 | -0.746
33 | COC(=O)c1ccc(CNC(=O)c2ccc(OCC(=O)N3CCOCC3)c(OC)c2)cc1 | 11.8
34 | Cc1cccc(N2CCN(C(=O)CNC(=O)c3ccccc3)CC2)c1C | -30.6
35 | COCCCN1C(=O)C(=O)/C(=C(/O)c2ccc(C)cc2)C1c1ccccc1 (stereo not drawn) | 9.22
36 | CCC(C)NC(=O)CSc1n[nH]c(=O)n1CCc1ccccc1 (stereo not drawn) | -4.84
37 | CNC[C@H](O)[C@@H](O)[C@H](O)[C@H](O)CO.Cc1c(Nc2ncccc2C(=O)O)cccc1C(F)(F)F | 10.9
38 | O=C(CSc1nnc(SCc2ccc(Cl)cc2)s1)N1CCN(C(=O)c2ccco2)CC1 | -33.7
39 | NC(=O)C1CC(=O)N(Cc2ccc3c(c2)OCO3)C(=Nc2ccccc2)S1 (stereo not drawn) | 9.5
40 | Cc1ccc(CN2CCN(Cc3ccc4c(c3)OCCO4)CC2CCO)cc1 (stereo not drawn) | -39.8
41 | N#Cc1ccccc1S(=O)(=O)N1CCN(C(=O)c2cc(=O)[nH]c3ccccc23)CC1 | 4.62
42 | O=C(N/N=C/c1cc2c(cc1Cl)OCO2)c1ccccn1 | 18.5
43 | Cc1[nH]c2ccccc2c1/C=N/n1cnnc1 | 10.2
44 | CN1C(=O)CC(N2CCN(c3ccc(Cl)c(Cl)c3)CC2)C1=O (stereo not drawn) | -26.4

Row | SMILES | hERG current change (%, negative = inhibition) at 10uM [%]
45 | Cc1cccc(CCNCc2cc3cccc(C)c3[nH]c2=O)c1 | -64.1
46 | CNc1nc(-c2c(C)n(C)c3ccc(OC)cc23)cs1 | 19.2
47 | COc1ccc(-c2cc(C(=O)NC3CCCC3)c3ccccc3n2)cc1OC | 6.47
48 | CCC(C)[C@@H]1NC(=O)N(CCCN2CCCC2=O)C1=O (stereo partly drawn) | 14.9
49 | CCOc1ccc(OCCOCCOc2c(Cl)cccc2Cl)cc1 | -0.499
50 | O=C(Nc1ccc2c(c1)Cc1ccccc1-2)c1cccnc1 | 9.56
51 | O=c1cc(O)c2c(=O)n(Cc3ccccc3)c3ccccc3c2o1 | 13.1
52 | CCOP(=O)(OCC)c1nc(-c2ccc(Cl)cc2Cl)oc1N1CCCCC1 | -34.8
53 | N#Cc1cc(F)c(N2CCNCC2)cc1Cl | 3.42
54 | CCN1CCN(CC(O)COc2ccc(C(C)=O)cc2)CC1.Cl (stereo not drawn) | 2.15
55 | CCCC(=O)c1cc(F)c(N2CCN(C(=O)OCC)CC2)cc1C | -2.77
56 | COc1ccc(CCN(C)C(=O)Cc2ccc(-c3ccccc3)cc2)cc1OC | -0.187
57 | CC(C)(C)S(=O)(=O)c1cnc(N2CCCCC2)nc1N | 10.5
58 | CN(C)CCCN(C(=O)COc1ccccc1)c1nc2ccc(Cl)cc2s1.Cl | -67.1
59 | CS(=O)(=O)N(CC(=O)N1CCN(Cc2ccccc2)CC1)c1cccc(Cl)c1 | -63.8
60 | COC(=O)C1=C(c2cccc(C#N)c2)C[C@@H]2CC[C@H]1N2C(=O)NCc1ccco1 | -11.1
61 | CC(=O)N1N=C(c2cccc([N+](=O)[O-])c2)OC1c1cccc(Br)c1 (stereo not drawn) | -19.9
62 | COc1ccc([C@H]2CC(=O)C=C(c3ccc4[nH]ccc4c3)C2)cc1OC | 9.42
63 | O=C1NCCN(Cc2ccc(Cl)c(F)c2)C1CC(=O)N1CCCO1 (stereo not drawn) | 12.1
64 | COc1ccc(OC)c(N/C=C/C(=C(C#N)C#N)N(C)C)c1 | -6.32
65 | COc1ccc(NC(C)=O)cc1NC(=O)CCn1c(=O)sc2ccccc21 | -2.39
66 | CO/N=C(/CS(=O)Cc1ccc(Cl)cc1)c1ccc(Cl)cc1 (stereo not drawn) | -12.6

Row | SMILES | hERG current change (%, negative = inhibition) at 10uM [%]
67 | CCC(=O)N/C(N)=N/c1nc(C)c2cc(OC)ccc2n1 | -17.5
68 | COc1cc(CN(C(=O)c2ccco2)C2CCS(=O)(=O)C2)cc(OC)c1OC (stereo not drawn) | 15.4
69 | O=C(O)C(=O)O.O=C1CCCN1CN1CCCCC1 | 0.00358
70 | Cc1cccc(CNc2ccc(C(CC(N)=O)NC(=O)c3cccc(Br)c3)cc2[N+](=O)[O-])c1 (stereo not drawn) | -19.8
71 | COc1cccc(SCc2noc(C(=O)NCCC(C)C)c2C(=O)NCCC(C)C)c1 | 12.4
72 | COc1ccc(C(OC(=O)c2ccco2)C(=O)NC2CCCCC2)cc1 (stereo not drawn) | 7.11
73 | C[N+]1(CC(=O)NNc2c3ccccc3nc3ccccc23)CCOCC1.[Br-] | 3.64
74 | O=C(c1ccc(F)cc1F)N1CCN(S(=O)(=O)c2ccc3c(c2)OCCO3)CC1 | -14.1
75 | OC(Cn1ccnc1)c1ccc(Cl)cc1Cl (stereo not drawn) | -5.76
76 | Cc1cccc(N2CCN(C(=O)Cc3c(C(=O)O)[nH]c4ccc(Cl)cc34)CC2)c1C | 7.86
77 | COc1ccccc1C(=O)Nc1nc2ccc(S(C)(=O)=O)cc2s1 | -17.2
78 | Cc1ncc(CN2CCC(C(=O)Nc3cccc(-c4cscn4)c3)CC2)cn1 | -11.9
79 | CCCS(=O)(=O)c1nnnn1-c1cccc(OC)c1 | -23.9
80 | O=C(Cc1ccccc1)Nc1ccc2c(c1)CCC2 | -13.2
81 | COC(=O)[C@@]1(C#N)[C@@H]2C=CC(C(C)=O)=CN2[C@@H](C(N)=O)[C@@H]1c1ccc(F)cc1 | -5.5
82 | O=[N+]([O-])c1cccc(-c2noc3c2-c2nc(Cc4cccc5ccccc45)sc2CC3)c1 | 16.6
83 | CC(C)CCNC(=O)CN(Cc1ccco1)C(=O)CCC(=O)Nc1nccs1 | -9.38
84 | Cc1cc(=O)oc2cc(OCC(=O)NCCN3CCOCC3)c(Cl)cc12 | 16.8
85 | CCOc1ccc(NC(=O)NC2CCOC(C)(C)C2)cc1 (stereo not drawn) | -14.2
86 | O=C(CNC(=O)c1ccccc1Cl)N/N=C/c1ccc([N+](=O)[O-])s1 | -24.6
87 | O=C(N/N=C/c1sc(N2CCCCC2)nc1-c1cccs1)c1cccnc1 | 11.8
